{
  "source": "PubChem BioAssay AID686978",
  "about": "(National Center for Advancing Translational Sciences (NCATS), 2013)",
  "note": "Several values for one entry are separate records, joined by “and”; a condition that tells them apart may be missing. Equal values may be shown once. Among all 420,000 compounds or so, about 64,000 (15%) were called active. This list was built around the results that the source calls inconclusive (neither active nor inactive); the mix of calls is not that of the screen. The call rests on the fitted dose curve; in most records, active means well fitted inhibition curve with a large enough effect; inconclusive means small, poorly fitted or top-dose-only effect; inactive means flat fitted curve, though single readings scatter. No potency is given beside an inconclusive call; the fits are too rough. On the % scale 0 is the no-effect control and ±100 the full control effect; potency means the concentration at half of the fitted maximal effect; tags describe the fitted curve by direction and shape.",
  "data": [
    {"test": "qHTS for Inhibitors of human tyrosyl-DNA phosphodiesterase 1 (TDP1): qHTS in cells in absence of CPT; further: nearly all actives have a fitted effect of over 55% in size", "conditions": "DT40 Tdp1-/- hTDP1 cells, no CPT, ATP luminescence, 48 h; activity change, negative = growth inhibition: at 46.2 µM (top of the series) unless noted", "in_short": "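DT40 Tdp1-/-;hTDP1 cells, no CPT (DMSO vehicle only), 400 cells/well; compounds pin-transferred; ≥48 hr, 37 °C; CellTiter-Glo 30 min RT dark, luminescence read.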", "values": [
      {"smiles": "CCOC(=O)c1cc(-c2ccccc2)n(-c2cccc(C(=O)Nc3cccc(F)c3)c2)c1C", "Potency": "inconclusive [inhibitor, single point]"},
      {"smiles": "COc1cc(C2C=C(Nc3ccccc3)C(=O)N2c2ccccc2)ccc1O", "note": "(stereo not drawn)", "Potency": "inconclusive [inhibitor, single point]"},
      {"smiles": "CS(=O)(=O)c1ccc(S(=O)(=O)N2CCC(CO)(CCCc3ccccc3)CC2)cc1", "Potency": "inconclusive [inhibitor, partial curve]"},
      {"smiles": "COc1ccc2[nH]cc(CCNc3nc(-c4ccc(C(=O)N(C)C)cc4)nc4ccccc34)c2c1", "Potency": "active: 7.31 µM"},
      {"smiles": "C/C(N)=C(/C#N)C(=O)CSc1nnc(SCc2ccc(Cl)cc2)s1", "Potency": "active: 7.31 µM and active: 16.4 µM"},
      {"smiles": "Cc1nc2ccccc2nc(C)c1=NOCc1ccc(Cl)cc1Cl", "Potency": "inconclusive [inhibitor, partial curve, poor fit]"},
      {"smiles": "CCOc1cc(N2CCOCC2)c(OCC)cc1NC(=O)C1CC(=O)N(c2ccc(C)cc2)C1", "note": "(stereo not drawn)", "Potency": "inconclusive [inhibitor, partial curve, poor fit]"},
      {"smiles": "Clc1cccc(-c2nnc(-c3ccccc3)o2)c1", "Potency": "active: 23.1 µM"},
      {"smiles": "CCNC(=S)SCCOc1ccccc1C", "activity change, negative = growth inhibition": "inconclusive: -31.8% [inhibitor]"},
      {"smiles": "CCc1cc2c(N3CCN(c4ccccc4)CC3)ncnc2s1", "Potency": "active: 11.6 µM"},
      {"smiles": "COCCN(CCOC)C(=S)Nc1ccccc1Cl", "Potency": "inconclusive [inhibitor, single point]"},
      {"smiles": "CCN(CC)C(=O)/C(C#N)=C/c1cc(O)c(O)c([N+](=O)[O-])c1", "Potency": "inactive"},
      {"smiles": "COc1ccc(C(=O)c2oc3ccccc3c2NC(=O)COc2ccccc2)cc1", "Potency": "inconclusive [inhibitor, partial curve]"},
      {"smiles": "CCCN1C(=O)/C(=C/c2ccc(OCC(=O)OCC)cc2)NC1=S", "Potency": "inactive"},
      {"smiles": "CC(c1ccccc1)n1c(-c2cccs2)nc2c(c(=O)c3ccccc3n2C)c1=O", "note": "(stereo not drawn)", "Potency": "inconclusive [inhibitor, single point]"},
      {"smiles": "Cc1ccc(CNC(=O)CCc2c(C)nc3c(c(C)nn3-c3ccccc3)c2C)cc1", "Potency": "inconclusive [inhibitor, single point]"},
      {"smiles": "Cc1n[nH]c(=O)n1-c1ccc(OCc2ccccc2)cc1", "Potency": "inactive"},
      {"smiles": "COc1ccc(C(=O)CC(=O)C(=O)Nc2ccc(C)c(C)c2)cc1", "Potency": "active: 20.6 µM"},
      {"smiles": "Cc1ccccc1N1C(=O)C(Oc2ccc(Cl)cc2)C1CNCC1CCCO1", "note": "(stereo not drawn)", "Potency": "inconclusive [inhibitor, single point]"},
      {"smiles": "COc1cccc(NC(=O)c2cccc(NC(=O)c3ccco3)c2)c1", "Potency": "inconclusive [inhibitor, single point]"},
      {"smiles": "COc1ccc2c(c1)c1c(n2C(C)=O)C(OC(C)=O)=NCC1", "Potency": "inconclusive [inhibitor, single point]"},
      {"smiles": "CN(CC(=O)Nc1ccc(F)c(F)c1F)C(=O)c1nn(Cc2ccccc2)c(=O)c2ccccc12", "Potency": "inconclusive [inhibitor, single point]"},
      {"smiles": "Cc1ccc(C(=O)N2CCC3(CC2)Oc2ccc(F)cc2C(=O)C32CC(c3cccnc3)=NO2)s1", "note": "(stereo not drawn)", "Potency": "inactive"},
      {"smiles": "O=C(NCC1CCCO1)c1onc(CSc2ccc(F)c(F)c2)c1C(=O)O", "note": "(stereo not drawn)", "Potency": "inactive"},
      {"smiles": "COc1ccc2c(c1)N(C(=O)CN1C(=O)C3CCCCC3C1=O)C(C)(C)C=C2C", "note": "(stereo not drawn)", "Potency": "inconclusive [inhibitor, single point]"},
      {"smiles": "O=C(Nc1ccccc1)c1cc(C2COCCN2C(=O)C2CC2)on1", "note": "(stereo not drawn)", "Potency": "inactive"},
      {"smiles": "COc1ccc(CCNC(=O)c2sc3nc4n(c(=O)c3c2C)CCCC4)cc1OC", "Potency": "inconclusive [inhibitor, single point]"},
      {"smiles": "CC(C)(C)C(=O)N1CCN(c2ccc(NC(=O)c3ccco3)cc2)CC1", "Potency": "inactive"},
      {"smiles": "Cc1ccccc1C(=O)Nc1ccc(S(=O)(=O)N2CCCC2)cc1", "Potency": "inconclusive [inhibitor, partial curve]"},
      {"smiles": "CCc1nc2ccc(C(=O)N3CCN(S(=O)(=O)CC)CC3)cn2c1N(C=O)Cc1ccc(OC)cc1", "Potency": "inactive"},
      {"smiles": "O=[N+]([O-])c1ccc2nc(N3CCCC3)sc2c1", "Potency": "active: 18.4 µM"},
      {"smiles": "COc1ccccc1N1CCN(CC(=O)NCc2ccc(Cl)cc2)CC1", "Potency": "inconclusive [inhibitor, single point]"},
      {"smiles": "C(/C=C/c1ccccn1)=C\\c1ccccc1", "activity change, negative = growth inhibition": "inconclusive: -33.1% [inhibitor]"},
      {"smiles": "CC(C)OC(=O)c1cccc(-c2ccc(C=O)o2)c1", "Potency": "inactive"},
      {"smiles": "CN(C)c1ccc(/C=N\\NC(=S)SCN2C(=O)C3CCC(C)(C2=O)C3(C)C)cc1", "note": "(stereo not drawn)", "Potency": "inconclusive [inhibitor, full curve, poor fit]"},
      {"smiles": "CCCCCCOc1ccc(C(=O)NCCCn2ccnc2)cc1", "Potency": "inconclusive [inhibitor, single point]"},
      {"smiles": "Cc1cc(C(=O)Nc2ccccc2C)on1", "Potency": "inactive"},
      {"smiles": "CCCN(c1ccccc1F)S(=O)(=O)c1c[nH]c(C(=O)OC)c1", "Potency": "inactive"},
      {"smiles": "O=C(COc1ccc(Cl)cc1)OCc1cc(=O)n2nc(-c3cccs3)sc2n1", "Potency": "inactive"},
      {"smiles": "COC(=O)c1ccc(CNC(=O)/C=C/c2cc([N+](=O)[O-])ccc2OC(F)F)cc1", "Potency": "inactive"},
      {"smiles": "COc1ccc(C2NC(=O)C(C)S2)cc1", "note": "(stereo not drawn)", "Potency": "inactive"},
      {"smiles": "O=C(Nc1ccc(Oc2ccccc2)cc1)C1CCN(c2ncccn2)CC1", "Potency": "inactive"},
      {"smiles": "COc1ccc(Cl)cc1NS(=O)(=O)c1cc(Br)cc2c1N(C(=O)C1CC1)CC2", "Potency": "inconclusive [inhibitor, full curve]"},
      {"smiles": "CCOc1ccc(N2C(=O)S/C(=C\\c3ccc(O)c(OCC)c3)C2=O)cc1", "Potency": "active: 16.4 µM"},
      {"smiles": "O=c1[nH][nH]c(=O)c2nc(Nc3ccccc3)ncc12", "Potency": "inactive"},
      {"smiles": "NS(=O)(=O)c1ccc(CCNC(=O)CCCOc2ccccc2)cc1", "Potency": "inconclusive [inhibitor, partial curve, poor fit]"},
      {"smiles": "CCn1nc([N+](=O)[O-])c(C(C#N)c2nc3cc(C(F)(F)F)ccc3s2)c(Cl)c1=O", "note": "(stereo not drawn)", "Potency": "active: 23.1 µM"},
      {"smiles": "O=C(Nc1ccc(NC(=O)c2ccco2)c(Cl)c1)c1ccc2c(c1)OCCO2", "Potency": "inconclusive [inhibitor, single point]"}
    ]}
  ]
}
